# Laboratory results published in ChEMBL document CHEMBL4888484, “Replenishing the malaria drug discovery pipeline: Screening and hit evaluation of the MMV Hit Generation Library 1 (HGL1) against asexual blood stage Plasmodium falciparum ,using a nano luciferase reporter read-out” (2022).
# The campaign covered roughly 150,000 compounds. About 540 (0.36%) showed an effect of 50% or more. The list shows a part of the results.
# Tested on: Plasmodium falciparum
# Experiment: Primary screen in NF54 nanoGlo assay, in single point, at 2uM, 72h; a lower Z score goes with more inhibition
# Assay type: functional, Erythrocyte
# Details: timepoint 72 hour
Structure (SMILES),% Inhibition,Z score
CCN(C(=O)c1occc1C)c1ccc(Br)cn1,-4%,0.49
Cc1nc(C)c(CNCC2(C#N)CCCCC2)o1,-7%,1.14
Cc1nn(-c2ccc(Cl)cc2)cc1C(=O)NC[C@H](C)C(=O)O,-13%,1.37
COc1ccccc1NC(=O)c1cccc(C(=O)Nc2ccccc2OC)n1,-7%,0.75
Cc1cnc(C2CCC2)n1CCNC(=O)c1ccnn1C,2%,-0.19
CC(C)(C)C1CCC2(CC1)CC(=O)c1ccc(OCC(=O)N3CCC(O)CC3)cc1O2 (centres undefined),1%,-0.08
Oc1ccccc1-c1oncc1-c1ccc2c(c1)OCCO2,-14%,2.71
COc1cccc(CC(=O)Nc2ccc3[nH]c(=O)[nH]c3c2)c1,-5%,0.62
C[C@H](NC(=O)c1cn(CCCc2ccccc2)nn1)c1ccc(F)cc1,-13%,1.17
Cc1noc(C2CN(C(=O)c3cc(-c4ccccc4)on3)C2)n1,-3%,0.57
CCOc1ccccc1C(=O)N1CCc2ncncc2C1,-9%,1.48
O=C(c1cc(-c2ccccc2)n2nc(-c3ccccc3)cc2n1)N1CCN(c2ccccc2F)CC1,3%,-0.35
Cc1nc2n(n1)C(c1cccs1)CC(C)N2 (centres undefined),24%,-2.75
CCc1nc(OC)ccc1NC(=O)c1sc([C@H]2CCOC2)nc1C,0%,-0.05
CC1(C)C[C@@H](C(=O)O)N(C(=O)OC(C)(C)C)C1,-12%,2.27
COc1cc(C)ccc1OCCc1c(C)noc1C,-6%,0.74
O=C(NCC(O)COCC1CC1)NC1CC1c1cccc(Cl)c1 (centres undefined),-11%,1.11
O=C(Nc1cccc(-c2noc(-c3cnccn3)n2)c1)c1cccs1,-28%,4.27
CO[C@@H](C)c1noc(CN2CCN(c3cccc(OCc4ccccc4Cl)c3)CC2)n1,-4%,0.59
Clc1ccc([C@@H]2CN(Cc3noc(-c4ccccc4)n3)CCO2)cc1,-5%,0.61
COc1ccnc(N2CCN(c3nnc(C)o3)CC2)n1,-14%,1.28

Structure (SMILES),% Inhibition,Z score
CNc1cc(C(=O)N2CC[C@@H]3OCc4cccc(c4)Oc4ccc(cc4)CCC(=O)N(CCCO)CC(=O)N[C@H]3C2)ccn1,-8%,1.52
O=S(=O)(CCN1CCC[C@H](Cn2cncn2)C1)C(F)(F)F,-3%,0.47
C[C@H]1CN(C(=O)c2cccc(=O)[nH]2)CCN1C1CCCC1,-7%,1.1
Cc1n[nH]c(C(=O)N2C[C@H](C)[C@@](O)(C3CC3)C2)c1Cl,-9%,1.76
COC(=O)c1cc(C2CC2)nc2c1c(=O)n(Cc1ncc(C)c(OC)c1C)c(=O)n2-c1ccccc1,-15%,1.92
Cc1cc(OCc2cc(C(=O)N3CC[C@H](O)C3)no2)cc(C)c1Cl,-7%,1.01
CCCCN(C)C(=O)c1cnn(-c2nccc(-c3ccc(C)o3)n2)c1C,-18%,2.77
CCN(c1ccccc1)c1ccc(CNC(=O)N2CC(C)C(C)(CO)C2)cc1 (centres undefined),-10%,1.84
CCC[C@H]1CN(c2nccs2)C[C@@H]1N(C)C,-13%,2.57
COc1ccccc1CNCCC(C)C,-15%,1.7
Cn1ncc2c(NCc3ccccc3)nc(N3CCCCC3)nc21,1%,-0.27
COc1cccc(C2CC(C)CN2Cc2cnn(C)c2)c1 (centres undefined),-3%,0.34
O=C(Cn1cc(S(=O)(=O)N2CCCCC2)ccc1=O)N1CCCc2ccccc21,-7%,1.39
Cc1ccc(OCC(=O)N2CCC3(CC2)C[C@@H](N2CCCCC2)CCO3)cc1,7%,-0.87
CCOc1ccccc1CN1C[C@@H](CO)[C@H](NC(=O)c2cnccn2)C1,-9%,1.48
CC1CCCc2cc(-c3noc(C(C)c4cnn(C)c4)n3)c(=O)[nH]c21 (centres undefined),-10%,1.14
C[C@H](NC(=O)c1ccc2c(=O)n3c(nc2c1)CCCCCC3)c1cccc(Cl)c1,-15%,1.56
O=S(=O)(Cl)c1ccc(-c2cnns2)cc1,-13%,1.77
COC(=O)c1ccc(CNC(=O)OC(C)(C)C)nc1,2%,-0.28
Cc1ccc(CCN2C(=O)CC[C@@H]3CN(C(=O)c4ccco4)CC[C@@H]32)o1,-2%,0.4
O=C1CCC2(CCN(C(=O)NC3CCCC3)CC2)CN1Cc1ccncc1,-28%,2.43
